Laboratory results from PubChem BioAssay AID485281 (National Center for Advancing Translational Sciences (NCATS), 2010).
The whole screen tested about 350,000 compounds, of which about 260 (0.074%) were called active. The inconclusive results got no clear call from the source; some entries with a clear call stand among them for comparison. Calls come from the whole dose curve; as a rule, active = well fitted inhibition curve with a large enough effect; inconclusive = small, poorly fitted or top-dose-only effect; inactive = no such curve, though single readings can be large or run the other way. A potency beside an inconclusive call is a rough fit, not a confirmed value.
Note: nearly all actives have a fitted effect of over 20% in size.
Potency is the fitted concentration of half-maximal effect; tags give direction and shape of the fitted curve.

These molecules were tested against Ferritin light chain (Equus caballus) (UniProt P02791) (assay: qHTS Assay for Identification of Novel General Anesthetics). Details: apoferritin/1-aminoanthracene competitive binding, fluorescence; series mostly up to 77.5 µM.
Sequence of UniProt P02791 (P02791 whole entry, looked up): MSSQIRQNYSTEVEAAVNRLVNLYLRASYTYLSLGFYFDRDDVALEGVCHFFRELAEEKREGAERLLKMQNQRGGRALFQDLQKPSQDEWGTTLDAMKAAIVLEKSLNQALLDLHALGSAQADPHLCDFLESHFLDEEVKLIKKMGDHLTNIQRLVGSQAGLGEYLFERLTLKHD
In short: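 Concentration-response curves derived by four-parameter Hill fitting of normalized fluorescence, where compounds displaced 1-AMA from 10 uM horse apoferritin following a brief 10 min room-temperature incubation; propofol titration acted as positive control.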
In the case of Cc1cccc(CSc2nnc(-c3ccco3)o2)c1, the Potency is reported as inconclusive: 31.6 µM [inhibitor, partial curve].
With Cc1ccc(NC(=O)CCCCCCCCCCC2COCCO2)c(C)c1 (stereo unspecified) the Potency was “inactive”.
Cc1ccc(OCCN2C(=O)C(=O)c3cc(C)ccc32)cc1 was tested, and the Potency was inconclusive: 35.5 µM [inhibitor, partial curve].
In the case of Cc1nc2c(=O)[nH]c3ccccc3c2o1, the Potency is reported as “inactive”.
COc1ccc(OC)c(NC(=O)CSc2nn3c(=O)c(C)nnc3s2)c1 was tested, and the Potency was “inactive”.
With Cc1cc(C)c(C#N)c(SCC(=O)Nc2ccc(S(=O)(=O)Nc3ncccn3)cc2)n1 the Potency was inconclusive: 28.2 µM [inhibitor, partial curve].
For CCOc1ncccc1C(=O)OCC(=O)c1ccc(C)c(C)c1, the Potency was inconclusive: 31.6 µM [inhibitor, partial curve].
In the case of CCN(Cc1ccccc1)c1ccc(/C=N/NS(=O)(=O)c2ccc(C)c([N+](=O)[O-])c2)cc1, the Potency is reported as inconclusive: 35.5 µM [inhibitor, single point].
For COC(=O)c1cn(NC(=O)CCC2CCCC2)c(=O)c2ccccc12, the Potency was inconclusive: 35.5 µM [inhibitor, partial curve].
CCOC(=O)CC(=O)CSc1ccc2nnc(-c3ccc(C)cc3)n2n1 was tested, and the Potency was inconclusive: 39.8 µM [inhibitor, partial curve].
COc1cccc(/C=N/NC(=O)CNC(=O)c2ccc3c(c2)OCCO3)c1O was tested, and the Potency was inconclusive: 10 µM [inhibitor, full curve].
With COc1cccc(COc2ccc3ccc(=O)oc3c2)c1 the Potency was inconclusive: 50.1 µM [inhibitor, single point].
For COc1cc(/C=C2\SC(=O)N(c3ccccc3Cl)C2=O)cc([N+](=O)[O-])c1O, the Potency was active: 17.8 µM.
CCCN(CCC)Cc1c(C(=O)N/N=C/CCc2ccccc2)nnn1-c1nonc1N was tested, and the Potency was inconclusive: 22.4 µM [inhibitor, single point].
In the case of O=C(CC1C(=O)NCCN1Cc1cccc(C(F)(F)F)c1)NC1CCCCCC1 (stereo unspecified), the Potency is reported as inconclusive: 39.8 µM [inhibitor, partial curve].
In the case of CS(=O)(=O)N1CCN(C(=O)COc2ccccc2)CC1, the Potency is reported as “inactive”.
CCOC(=O)c1ccc(NC(=O)C2=C(C)C(=O)OC23CCCCCC3)cc1 was tested, and the Potency was inconclusive: 22.4 µM [inhibitor, partial curve].
For CC(C)Sc1ncc(Cl)c(C(=O)Nc2nc3ccc(S(C)(=O)=O)cc3s2)n1, the Potency was “inactive”.
For COc1ccc(-c2[nH]ncc2/C=C(/C#N)C(=O)NC2CCCCC2)cc1, the Potency was inconclusive: 10 µM [inhibitor, partial curve].
In the case of COc1ccc(C2=NN(C(=O)COc3ncnc4ccccc34)C(c3ccco3)C2)cc1 (stereo unspecified), the Potency is reported as “inactive”.
For Cc1ccc(-c2cc(N)n(Cc3ccc(Cl)cc3)n2)cc1, the Potency was inconclusive: 12.6 µM [inhibitor, partial curve].
In the case of O=C(Cn1nnc2ccccc21)N/N=C\C=C\c1ccccc1, the Potency is reported as inconclusive: 35.5 µM [inhibitor, partial curve].
O=C(Nc1ccc2nc(-c3ccc(Br)o3)[nH]c2c1)c1ccco1 was tested, and the Potency was “inactive”.
In the case of CC(=O)N1CCc2c(sc(NC(=O)C3CC3)c2-c2nc3ccccc3s2)C1, the Potency is reported as “inactive”.
With COC(=O)c1ccc(C2c3c(-c4ccc(Br)cc4)n[nH]c3C(=O)N2c2ccc(Cl)cc2)cc1 (stereo unspecified) the Potency was “inactive”.
With CCOc1ccc2c(c1)c(=O)c(S(=O)(=O)c1ccc(CC)cc1)cn2CC the Potency was inconclusive: 22.4 µM [inhibitor, single point].
For Oc1ccc(O)c(Cc2nc3ccccc3s2)c1, the Potency was inconclusive: 28.2 µM [inhibitor, partial curve].
In the case of CCc1ccc(OCC(=O)Nc2cc3oc4ccccc4c3cc2OC)c(Br)c1, the Potency is reported as “inactive”.
For CCCCn1c(CCc2ccccc2)nc2cc3[nH]c(=O)c(C(C)C)nc3cc21, the Potency was inconclusive: 3.98 µM [inhibitor, full curve, poor fit].
For CN(C)S(=O)(=O)c1cccc(NC(=O)/C=C/c2ccccc2[N+](=O)[O-])c1, the Potency was “inactive”.
For CNc1nc(N/N=C/c2cc3c(cc2[N+](=O)[O-])OCO3)nc(Nc2ccccc2)n1, the Potency was inconclusive: 14.1 µM [inhibitor, partial curve].
With COc1ccc(Cl)cc1S(=O)(=O)N1CCC(C(=O)NCCC2=CCCCC2)CC1 the Potency was inconclusive: 35.5 µM [inhibitor, partial curve].
In the case of O=S(=O)(NCc1ccco1)N1CCCCCC1, the Potency is reported as inconclusive: 35.5 µM [inhibitor, single point].
CCOC(=O)C1(CCOc2ccccc2)CCN(Cc2cccc3nonc23)CC1 was tested, and the Potency was inconclusive: 28.2 µM [inhibitor, partial curve].
In the case of Cc1ccc(C(=O)COC(=O)CCCC(=O)Nc2cc(C(F)(F)F)ccc2Cl)cc1C, the Potency is reported as inconclusive: 12.6 µM [inhibitor, partial curve].
With Cc1ccc2c(c1)/C(=N/N1C(=O)c3ccccc3C1=O)C(=O)N2 the Potency was “inactive”.
O=C(CCNc1cccc(F)c1)c1cccc([N+](=O)[O-])c1 was tested, and the Potency was inconclusive: 28.2 µM [inhibitor, partial curve].
For CC(=O)NCCn1c(C)cc2ccccc21, the Potency was “inactive”.
With O=C(Nc1ccc(Cl)cc1)N1CCOC12CCCCC2 the Potency was inconclusive: 28.2 µM [inhibitor, partial curve].
In the case of Cc1cc(Nc2ccccc2F)n2nc(Cc3ccc(Cl)cc3)nc2n1, the Potency is reported as “inactive”.
In the case of COc1cc2c(cc1OC)n(CC(=O)Nc1ccc(C)cc1C)c(=O)n1nc(-c3ccccc3)nc21, the Potency is reported as “inactive”.
In the case of CCCCOc1ccc(OCCNS(=O)(=O)N(C)C)cc1, the Potency is reported as inconclusive: 39.8 µM [inhibitor, single point].
With COC(=O)c1sc(NC(=O)c2ccc(Cn3cc(Cl)cn3)o2)c(C#N)c1C the Potency was inconclusive: 25.1 µM [inhibitor, partial curve].
CC(C)(C)C(=O)Nc1ccc(N2CCCC2)cc1 was tested, and the Potency was inconclusive: 15.8 µM [inhibitor, partial curve].
With COc1ccc(-c2nc3ccccc3[nH]2)cc1 the Potency was “inactive”.
With CC1=CC(C)(C)N(C(=O)CN2C(=O)CCC2=O)c2ccc(C)cc21 the Potency was “inactive”.
